The supplement of paper PMC10338343
± gives the standard deviation. The list shows a part of the results, in another mix than the full data.

Tested on: MIWI (PIWIL1) piRISC loaded with L1MC piRNA (30 nt)
Assay: pre-steady-state target cleavage rate (min^-1); MIWI and MILI are mouse PIWI proteins and EfPiwi is from a freshwater sponge; tags in brackets are library labels; higher = faster piRNA-guided slicing of the target
Details: guide: L1MC piRNA 5'p-UAACUAAAUACUAUGCAAGCUGUAGGUCCU
Outline: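 Cleave-'n-Seq: a transcribed, DNA-blocked target RNA library (0.1 nM) was mixed with 1 nM active affinity-purified piRISC carrying one synthetic guide, with or without 500 nM GTSF1 partner protein, in HEPES–potassium acetate buffer at 33 °C for 0–8 or 0–960 min. Uncleaved targets were sequenced and normalised to depth and to weakly complementary targets. Three trials were pooled, and k3 was capped at 0.0001 min^-1. The pre-steady-state cleavage rate came from a burst-and-steady-state fit.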

[1] = auxiliary factor: 500 nM mouse GTSF1
[2] = auxiliary factor: none (no GTSF1)

Sequence	pre-steady-state target cleavage rate [1]	pre-steady-state target cleavage rate [2]
UCCUGGAUCAGCUUGCUUAGUAUAUAGUUA	0.323 ± 0.031	0.0142 ± 0.0043
UCCUGGAUGUGCUUGCAUAGUAUAUAGUAA	0.0164 ± 0.005	0.00396 ± 0.0021
UCCUGGUACAGCUUGCAUAUUAUUUAGUUA	0.587 ± 0.08	0.0572 ± 0.013
UGCACCUACAGCUUGCAUAGUAUAUAGUUA	0.828 ± 0.077	0.0452 ± 0.012
UCCUGGUUCAGCUUGCAUAGUAUUUAGAUA	0.261 ± 0.036	0.0138 ± 0.0041
AGGACCUACUGCUUGCAAAGUAUUUAGUUA	1.11 ± 0.057	0.0455 ± 0.0095
UCGACCUACUGCUUGCAUUGUAUUUAGUUA	0.958 ± 0.04	0.0353 ± 0.0089
UCCUGGAACAGCUUGCAUAGUUUUUACUUA	0.125 ± 0.021	0.0143 ± 0.0048
UCCUCCUACAGCAUGCAUAGUAUUUUGUUA	0.485 ± 0.045	0.0105 ± 0.002
UCCUGGAACAGCUUGCAAAGUAUUUAGAUA	0.343 ± 0.037	0.0142 ± 0.0041
UCGACCUACAGCUUGCAUAGUAUUUAGUCA	0.947 ± 0.041	0.0656 ± 0.013
UCCUGGAUCAGCUUGACAUAGUAUUUAGUUA	0.384 ± 0.026	0.00499 ± 0.0024
UCCUGGAACACCUUGCAUAGUAAUUAGUUA	0.309 ± 0.043	0.0109 ± 0.0031
AGGACCUACAGCUUGCAAACUAUUUAGUUA	0.332 ± 0.023	0.00837 ± 0.0028
UGCACCUACAGCUUGCAUAGUUUUUAGUUA	0.45 ± 0.041	0.0504 ± 0.011
UCCACCUACACCUUGCAUUGUAUUUAGUUA	0.634 ± 0.019	0.0252 ± 0.0054
AGGACCUACAGCUUGCAUAGAAUAUAGUUA	0.373 ± 0.037	0.0174 ± 0.0066
UCCUGGAUCAGCUUGGUUAGUAUUUAGUUA	0.49 ± 0.031	0.00737 ± 0.0031
UGGAGCUACAGCUUGCAUACUAUUUAGUUA	0.377 ± 0.015	0.0317 ± 0.0059
UCCUGGUACAGGUUGCAUAGUAUUUAGAUA	0.467 ± 0.086	0.00768 ± 0.0027

Sequence	pre-steady-state target cleavage rate [1]	pre-steady-state target cleavage rate [2]
AGGACGUAGAGCUUGCAUAGUAUUUAGUUA	1.17 ± 0.072	0.047 ± 0.0083
AGCACCUACAGCUUGCAUUGUAUUUAGUUA	0.607 ± 0.045	0.0284 ± 0.0055
UGGACCUAGAGCUUGCAAAGUAUUUAGUUA	1.02 ± 0.057	0.0279 ± 0.0063
UCGACCAUGAGCUUGCAUAGUAUUUAGAAA	0.387 ± 0.046	0.00687 ± 0.0026
UCCUGGAUGUCGUUGCAUUGUAUUUUGUUA	< 0.0001	< 0.0001
UCCUGGUACAGCUUGCAAAGUAUAUAGUUA	0.396 ± 0.057	0.0222 ± 0.0067
UGGACCUACUCCUUGCAUAGUAUUUAGUUA	1.11 ± 0.054	0.0434 ± 0.008
UCCUGCUAGAGCUUGCAUAGAAUUUAGUUA	0.252 ± 0.025	0.0179 ± 0.0056
UCGACCUACAGCUUGCAUAGUUAUUAGUUA	0.191 ± 0.018	0.0154 ± 0.0025
UCGUCCUACAGCUUGCAUAGUAUAUAGUUA	0.637 ± 0.026	0.0248 ± 0.0039
UGGACCUACAGCUUGCAUAGGAUUUAGUUA	0.0322 ± 0.005	0.00891 ± 0.0028
UGGACCUACACCUUGCAUAGUAUUUACAAA	0.249 ± 0.038	0.008 ± 0.0019
UCGACCUACAGCUUGCAUAGUGAUUUAGUUA	0.0988 ± 0.015	0.00635 ± 0.0024
UCCUGGAACAGCUUGCAUCGUAUUUAGUUA	0.37 ± 0.026	0.0411 ± 0.0093
UCCUGGAUGAGCUUGCAUAGUAUUUAGGUA	0.352 ± 0.051	0.0324 ± 0.0069
UCCUCCUAUCAGCUUGCAUAGUAUUUAGUUA	1.49 ± 0.072	0.0492 ± 0.011
UGGACCUACAGCUUGCUUAGUAUUUACUUA	0.547 ± 0.047	0.0292 ± 0.0077
UCCUGGAUCAGCUUGCAAAGUAAUUAGUUA	0.27 ± 0.028	0.0111 ± 0.0048
UCGCCCUACAGCUUGCAUAGUAUUUAGUUA	1.32 ± 0.055	0.0692 ± 0.011
UCCUGCUACAGCUUGCAUAGUAAUUAGUAA	0.213 ± 0.029	0.00539 ± 0.0022

Sequence	pre-steady-state target cleavage rate [1]	pre-steady-state target cleavage rate [2]
UCGAGGUACAGCUUGCAUAGUAUUUAGUAA	0.88 ± 0.079	0.0304 ± 0.0047
UCCACCUACAGCUUGCAUAGUAUAUUGUUA	0.349 ± 0.036	0.0109 ± 0.0024
AGGACCUACAGCUUGCAUACUAUUUAGAAA	0.315 ± 0.055	0.0104 ± 0.0029
AGGACCUAGAGCUUGCAUAGUAUAUAGUUA	0.683 ± 0.051	0.0427 ± 0.011
UCCUGGAUCAGCUUGGCAUAGUAUUUAGUUA	0.648 ± 0.14	0.0104 ± 0.0039
UCCACCUACAGCUUGGAUACUAUUUAGUUA	0.305 ± 0.026	0.0228 ± 0.004
UCGACCUACACCUUCCAUAGUAUUUAGUUA	0.0294 ± 0.0086	0.00291 ± 0.0015
UGGACCUACAGCUCUGCAUAGUAUUUAGUUA	1.56 ± 0.11	0.0566 ± 0.014
UCCUGGAACUCCUUGCAUAGUAUUUAGUAA	0.183 ± 0.022	0.00322 ± 0.0032
UCGACCUACAGCGUUGCAUAGUAUUUAGUUA	1.21 ± 0.073	0.0561 ± 0.01
UCCUCCUACAGCUUGCAUAGUAUCUUAGUUA	0.96 ± 0.045	0.016 ± 0.0044
UCCUGGAUGAGCUUGCAUAGUAUUUACAUA	0.0877 ± 0.018	0.00668 ± 0.0035
UCCUGGAACAGCUUGCAUAGUAUUUUGUAA	0.151 ± 0.03	0.0187 ± 0.0045
UCCUGGUACAGCUUGCAUAGUAUUAUGUUA	0.209 ± 0.027	0.0187 ± 0.0041
AGGACCUACAGGUUGCAUAGUAUUUAGAUA	0.472 ± 0.053	0.0379 ± 0.0093
UCCUGGAUGAGCUUGCAUAGUUUUUACUUA	0.0319 ± 0.011	0.00684 ± 0.0026
UCCUGGAUCUGCUUGCAUAGUAUUUACUUA	0.148 ± 0.015	0.018 ± 0.0039
AGGACCUACAGCUUGGAAAGUAUUUAGUUA	1.16 ± 0.037	0.00672 ± 0.0024
UCCACCAUCAGCUUGCAUAGUAUUUAGUAA	0.68 ± 0.029	0.0248 ± 0.0047
UGGACCAACAGCUUGCAUAGUAUAUAGUUA	0.881 ± 0.04	0.0312 ± 0.0071
